We go through 40 sequences from publication PMC12820563, “FoxP3 forms a head-to-head dimer in vivo and stabilizes its multimerization on adjacent microsatellites”.

The list shows a part of the results.

The assay has as its target T1, MBP-FoxP1dN (Mus musculus, UniProt P58462 326-579).
T1 sequence: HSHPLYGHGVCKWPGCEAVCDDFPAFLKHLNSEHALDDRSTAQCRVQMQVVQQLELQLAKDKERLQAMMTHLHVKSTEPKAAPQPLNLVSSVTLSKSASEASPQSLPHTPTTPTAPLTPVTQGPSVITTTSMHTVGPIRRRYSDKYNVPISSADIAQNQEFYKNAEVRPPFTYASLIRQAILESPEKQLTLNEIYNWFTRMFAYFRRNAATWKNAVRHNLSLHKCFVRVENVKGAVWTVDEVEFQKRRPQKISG
Description: PD-seq (MBP pull-down with sequencing); 20 mM Tris-HCl pH 7.5, 100 mM NaCl, 1.5 mM MgCl2, 0.4 uM protein, 0.1 uM dsDNA library, 30 min, room temperature, amylose pull-down; high values mean tight binding. The note with it: protein: recombinant; tags: His6-MBP; chain copies: 2; dsDNA, one strand shown. An outline of the steps:
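The N-terminus-lacking fragment of mouse FoxP3 or FoxP1 carried a His6-MBP tag and was expressed in E. coli. At 0.4 µM it was incubated with 0.1 µM Klenow-filled degenerate double-stranded DNA library for 30 min at room temperature in Tris pH 7.5 buffer with NaCl and MgCl2, and complexes were caught on amylose resin, washed three times, released with proteinase K, PCR-barcoded and Illumina-sequenced. Binding is reads-per-million enrichment of pull-down over input with replicates pooled.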
Consider “GATGATTGTTCTCCCAGCTGATGAATTGGTTGTTTCGAGTAAACAAATTTTCCTAATCTTTCTGTTCAAGCGCCATCTAC”, for which the binding signal is 1.45 RPM ratio (pull-down/input). Next, “GATGATTGTTCTCCCAGCTGATGAATTCCTCTACTCGAGTAAACAAATTTTCCTAATCTTTCTGTTCAAGCGCCATCTAC”: 0.84 RPM ratio (pull-down/input); “GATGATTGTTCTCCCAGCTGATGAATTATTTTGTTCGAGTAAACAAATTTTCCTAATCTTTCTGTTCAAGCGCCATCTAC”: 1.32 RPM ratio (pull-down/input). Consider “GATGATTGTTCTCCCAGCTGATGAATTTACTGACTCGAGTAAACAAATTTTCCTAATCTTTCTGTTCAAGCGCCATCTAC”, for which the binding signal was 1.13 RPM ratio (pull-down/input).

Regarding “GATGATTGTTCTCCCAGCTGATGAATTTGTTGCGTCGAGTAAACAAATTTTCCTAATCTTTCTGTTCAAGCGCCATCTAC”, the binding signal is 1.5 RPM ratio (pull-down/input).

Turning to “GATGATTGTTCTCCCAGCTGATGAATTATAACAATCGAGTAAACAAATTTTCCTAATCTTTCTGTTCAAGCGCCATCTAC”, the binding signal was 1.68 RPM ratio (pull-down/input). The result for “GATGATTGTTCTCCCAGCTGATGAATTGTTTCGCTCGAGTAAACAAATTTTCCTAATCTTTCTGTTCAAGCGCCATCTAC” reads 1.18 RPM ratio (pull-down/input); that for “GATGATTGTTCTCCCAGCTGATGAATTAGGGCTGTCGAGTAAACAAATTTTCCTAATCTTTCTGTTCAAGCGCCATCTAC”, 0.826 RPM ratio (pull-down/input). The result for “GATGATTGTTCTCCCAGCTGATGAATTCTTCAACTCGAGTAAACAAATTTTCCTAATCTTTCTGTTCAAGCGCCATCTAC” reads 0.835 RPM ratio (pull-down/input). Next, “GATGATTGTTCTCCCAGCTGATGAATTAATTCGGTCGAGTAAACAAATTTTCCTAATCTTTCTGTTCAAGCGCCATCTAC”: 0.851 RPM ratio (pull-down/input); “GATGATTGTTCTCCCAGCTGATGAATTATGCGACTCGAGTAAACAAATTTTCCTAATCTTTCTGTTCAAGCGCCATCTAC”: 1.01 RPM ratio (pull-down/input); “GATGATTGTTCTCCCAGCTGATGAATTCATTCCTTCGAGTAAACAAATTTTCCTAATCTTTCTGTTCAAGCGCCATCTAC”: 0.886 RPM ratio (pull-down/input). For “GATGATTGTTCTCCCAGCTGATGAATTGCCAAACTCGAGTAAACAAATTTTCCTAATCTTTCTGTTCAAGCGCCATCTAC”, the binding signal is 1.02 RPM ratio (pull-down/input).

In the case of “GATGATTGTTCTCCCAGCTGATGAATTGGTGAAATCGAGTAAACAAATTTTCCTAATCTTTCTGTTCAAGCGCCATCTAC”, the binding signal is 1.07 RPM ratio (pull-down/input).

For “GATGATTGTTCTCCCAGCTGATGAATTGCTGTTATCGAGTAAACAAATTTTCCTAATCTTTCTGTTCAAGCGCCATCTAC”, the binding signal was 1.85 RPM ratio (pull-down/input).

“GATGATTGTTCTCCCAGCTGATGAATTTACGAAATCGAGTAAACAAATTTTCCTAATCTTTCTGTTCAAGCGCCATCTAC”: the binding signal is 1.42 RPM ratio (pull-down/input).

“GATGATTGTTCTCCCAGCTGATGAATTCCTGACTTCGAGTAAACAAATTTTCCTAATCTTTCTGTTCAAGCGCCATCTAC”: the binding signal is 0.783 RPM ratio (pull-down/input). The result for “GATGATTGTTCTCCCAGCTGATGAATTTACCTGCTCGAGTAAACAAATTTTCCTAATCTTTCTGTTCAAGCGCCATCTAC” reads 1.08 RPM ratio (pull-down/input); that for “GATGATTGTTCTCCCAGCTGATGAATTACGTGGCTCGAGTAAACAAATTTTCCTAATCTTTCTGTTCAAGCGCCATCTAC”, 0.926 RPM ratio (pull-down/input).

“GATGATTGTTCTCCCAGCTGATGAATTCAGTGCGTCGAGTAAACAAATTTTCCTAATCTTTCTGTTCAAGCGCCATCTAC”: the binding signal was 0.952 RPM ratio (pull-down/input). Next, “GATGATTGTTCTCCCAGCTGATGAATTAGCTTCGTCGAGTAAACAAATTTTCCTAATCTTTCTGTTCAAGCGCCATCTAC”: 0.892 RPM ratio (pull-down/input); “GATGATTGTTCTCCCAGCTGATGAATTAAACCCTTCGAGTAAACAAATTTTCCTAATCTTTCTGTTCAAGCGCCATCTAC”: 0.938 RPM ratio (pull-down/input). Next, “GATGATTGTTCTCCCAGCTGATGAATTTCGAACGTCGAGTAAACAAATTTTCCTAATCTTTCTGTTCAAGCGCCATCTAC”: 0.799 RPM ratio (pull-down/input); “GATGATTGTTCTCCCAGCTGATGAATTTTTTCTTTCGAGTAAACAAATTTTCCTAATCTTTCTGTTCAAGCGCCATCTAC”: 0.834 RPM ratio (pull-down/input). The result for “GATGATTGTTCTCCCAGCTGATGAATTCATCGACTCGAGTAAACAAATTTTCCTAATCTTTCTGTTCAAGCGCCATCTAC” reads 0.841 RPM ratio (pull-down/input); that for “GATGATTGTTCTCCCAGCTGATGAATTATGGGACTCGAGTAAACAAATTTTCCTAATCTTTCTGTTCAAGCGCCATCTAC”, 0.921 RPM ratio (pull-down/input). Take “GATGATTGTTCTCCCAGCTGATGAATTCACGTCTTCGAGTAAACAAATTTTCCTAATCTTTCTGTTCAAGCGCCATCTAC”: the binding signal is 0.955 RPM ratio (pull-down/input). As to “GATGATTGTTCTCCCAGCTGATGAATTCTCGCTTTCGAGTAAACAAATTTTCCTAATCTTTCTGTTCAAGCGCCATCTAC”, the binding signal is 1.04 RPM ratio (pull-down/input). As to “GATGATTGTTCTCCCAGCTGATGAATTTCCTAACTCGAGTAAACAAATTTTCCTAATCTTTCTGTTCAAGCGCCATCTAC”, the binding signal is 0.911 RPM ratio (pull-down/input).

For “GATGATTGTTCTCCCAGCTGATGAATTTGACCATTCGAGTAAACAAATTTTCCTAATCTTTCTGTTCAAGCGCCATCTAC”, the binding signal is 0.934 RPM ratio (pull-down/input). The result for “GATGATTGTTCTCCCAGCTGATGAATTCTAGGGGTCGAGTAAACAAATTTTCCTAATCTTTCTGTTCAAGCGCCATCTAC” reads 0.74 RPM ratio (pull-down/input); that for “GATGATTGTTCTCCCAGCTGATGAATTTCTTACTTCGAGTAAACAAATTTTCCTAATCTTTCTGTTCAAGCGCCATCTAC”, 0.956 RPM ratio (pull-down/input). Next, “GATGATTGTTCTCCCAGCTGATGAATTTTAATAATCGAGTAAACAAATTTTCCTAATCTTTCTGTTCAAGCGCCATCTAC”: 1.3 RPM ratio (pull-down/input).

With “GATGATTGTTCTCCCAGCTGATGAATTAGGTTGATCGAGTAAACAAATTTTCCTAATCTTTCTGTTCAAGCGCCATCTAC”, the binding signal was 0.965 RPM ratio (pull-down/input).

On to “GATGATTGTTCTCCCAGCTGATGAATTAACGATTTCGAGTAAACAAATTTTCCTAATCTTTCTGTTCAAGCGCCATCTAC”, for which the binding signal is 0.95 RPM ratio (pull-down/input). Next, “GATGATTGTTCTCCCAGCTGATGAATTGCTCAGCTCGAGTAAACAAATTTTCCTAATCTTTCTGTTCAAGCGCCATCTAC”: 0.904 RPM ratio (pull-down/input); “GATGATTGTTCTCCCAGCTGATGAATTGGGTGAGTCGAGTAAACAAATTTTCCTAATCTTTCTGTTCAAGCGCCATCTAC”: 0.83 RPM ratio (pull-down/input). Next, “GATGATTGTTCTCCCAGCTGATGAATTCGACAGCTCGAGTAAACAAATTTTCCTAATCTTTCTGTTCAAGCGCCATCTAC”: 0.763 RPM ratio (pull-down/input); “GATGATTGTTCTCCCAGCTGATGAATTTTCTTGTTCGAGTAAACAAATTTTCCTAATCTTTCTGTTCAAGCGCCATCTAC”: 0.994 RPM ratio (pull-down/input); “GATGATTGTTCTCCCAGCTGATGAATTGTTACATTCGAGTAAACAAATTTTCCTAATCTTTCTGTTCAAGCGCCATCTAC”: 1.49 RPM ratio (pull-down/input).
